Screen size: about 310,000 compounds; about 2,200 (0.71%) showed an effect of 50% or more. Effects have a minus sign here. Some of the results follow.
target: human ether-à-go-go-related gene (hERG) potassium channel (human, UniProt Q12809); assay: primary screen, population patch clamp on CHO cells stably expressing hERG
Sequence (Q12809 whole entry, looked up): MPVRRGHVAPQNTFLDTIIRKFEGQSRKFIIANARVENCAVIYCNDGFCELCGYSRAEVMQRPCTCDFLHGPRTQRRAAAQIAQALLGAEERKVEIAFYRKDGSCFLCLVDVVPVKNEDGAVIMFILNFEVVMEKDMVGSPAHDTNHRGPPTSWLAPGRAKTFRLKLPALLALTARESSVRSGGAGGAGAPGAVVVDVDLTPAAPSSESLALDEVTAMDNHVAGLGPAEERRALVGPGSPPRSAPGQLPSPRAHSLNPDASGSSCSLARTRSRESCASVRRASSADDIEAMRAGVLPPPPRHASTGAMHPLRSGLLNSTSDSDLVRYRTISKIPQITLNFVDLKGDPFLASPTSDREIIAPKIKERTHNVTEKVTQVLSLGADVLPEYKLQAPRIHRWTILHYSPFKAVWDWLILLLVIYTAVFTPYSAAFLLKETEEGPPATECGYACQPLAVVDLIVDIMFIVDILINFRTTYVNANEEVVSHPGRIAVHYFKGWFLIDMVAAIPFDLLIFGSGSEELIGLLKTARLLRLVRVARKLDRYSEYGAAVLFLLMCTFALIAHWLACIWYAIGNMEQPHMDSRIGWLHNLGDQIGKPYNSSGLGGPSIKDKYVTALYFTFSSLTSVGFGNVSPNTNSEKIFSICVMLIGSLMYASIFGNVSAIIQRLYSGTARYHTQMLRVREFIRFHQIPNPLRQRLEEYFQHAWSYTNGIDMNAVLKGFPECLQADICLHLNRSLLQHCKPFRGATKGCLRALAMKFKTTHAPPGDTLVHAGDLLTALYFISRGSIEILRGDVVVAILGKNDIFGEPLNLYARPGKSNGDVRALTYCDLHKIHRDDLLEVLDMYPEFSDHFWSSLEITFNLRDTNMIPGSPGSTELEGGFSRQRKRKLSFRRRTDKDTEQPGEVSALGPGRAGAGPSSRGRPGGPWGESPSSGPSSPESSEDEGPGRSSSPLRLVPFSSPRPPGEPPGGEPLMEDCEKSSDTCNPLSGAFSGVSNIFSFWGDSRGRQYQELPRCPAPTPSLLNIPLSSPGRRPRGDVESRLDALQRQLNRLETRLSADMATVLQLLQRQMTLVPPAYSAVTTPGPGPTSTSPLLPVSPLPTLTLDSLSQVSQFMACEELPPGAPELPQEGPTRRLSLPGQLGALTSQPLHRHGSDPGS

In order of rising “hERG current change (%, negative = inhibition) at 1uM” value:
1. CCOC(=O)c1ccc(NC(=O)CCNC(=O)c2ccc([N+](=O)[O-])cc2)cc1  -19.8%
2. COCCN1C(=O)N[C@@H](c2cccc(F)c2)C(C(=O)OC)=C1C  -10.7%
3. O=C(NCCc1cccc(Cl)c1)c1cc([N+](=O)[O-])ccc1Cl  -5.97%
4. CC(C)[C@H](NC(=O)c1ccccc1Cl)C(=O)OCc1cc([N+](=O)[O-])cc2c1OCOC2  -2.64%
5. Cc1ccc2c(Cl)c(C(=O)NCC3CCCO3)sc2c1 (centres unmarked)  0.795%
6. Cc1c(C(=O)N2CCOCC2)oc2ccc(S(=O)(=O)N3CCCC3)cc12  1.96%
7. CCOC(=O)/C=C1\NC2(CCCCC2)Cc2cc(OC)c(OC)cc21  4.21%
8. COCC(C)n1c(C)cc(C(=O)COc2ccc(S(=O)(=O)N3CCOCC3)cc2Cl)c1C (centres unmarked)  4.48%
9. COc1ccc(/C=N/n2cnnc2SCc2ccccc2)cc1  4.97%
10. CCN1CCN(c2nc3c(C)cccn3c(=O)c2/C=C(\C#N)C(=O)NC)CC1  6.48%
11. O=C1CCCN1CCCNC(=S)Nc1ccc(F)cc1  7.2%
12. C=CCn1c(SCC(=O)c2cc(C)n(CC3CCCO3)c2C)nnc1-c1ccccc1 (centres unmarked)  8.27%
13. CCCCn1c(N)c(N(CC(C)C)C(=O)c2ccc(N3C(=O)c4ccccc4C3=O)cc2)c(=O)[nH]c1=O  8.76%
14. CC(C)c1csc(CN2CCC(N3CCC(C(=O)NCC4CCCO4)CC3)CC2)n1 (centres unmarked)  9.96%
15. Cc1ccc(-n2c(C)nc3ccccc3c2=O)c(C)c1  10.1%
16. COc1ccc(-c2c(NC(=O)c3ccco3)oc3ccc(Cl)cc3c2=O)cc1  10.6%
17. Cc1ccc(N2CCN(C3=NC(=O)/C(=C\c4cn[nH]c4-c4ccccc4)S3)CC2)cc1  11.3%
18. CN(C(=O)COC(=O)C1=COCCO1)C1(C#N)CCCCC1  11.8%
19. Cc1ccc(-c2csc3nc[nH]c(=O)c23)cc1  12.1%
20. CCOC(=O)c1ccc(N2C=C(C(=O)OC)C(c3ccc(OC)c(O)c3)C(C(=O)OC)=C2)cc1  12.8%
21. CC(Sc1nnc(-c2ccc(Cl)cc2)n1N)C(=O)NCC1CCCO1 (centres unmarked)  14.1%
22. O=C(O)c1sccc1Oc1ccc(NS(=O)(=O)c2ccccc2)cc1  17.2%
23. C/C(=N\NC(=O)c1ccc(Cl)cc1)c1ccc2[nH]ccc2c1  19.8%

From publication PMC4336329 (PLoS ONE, 2015)
